Values marked as one replicate rest on one cluster of the flow cell; about a third of the high ones do not repeat.
test system: ATP; assay: switch fluorescence ratio, 500 uM ATP over buffer (Cy3 cluster intensity, sum of 5 cycles each) (fold (ratio)); higher = stronger signal-on switching upon ATP binding; sequences stand for … in TCGTCGGCAGCGTCAGATGTGTATAAGAGACAGTTTTTTTTTTTTTTTTTTTTTTTTT…TC; settings: aptamer strand: ATP DNA aptamer (quencher-CACCTGGGGGAGTATTGCGGAGGAAGG + anchor), 100 nM annealed; ATP concentration: 500 uM; one replicate
Procedure, shortened: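 Cy3-labelled switching-strand clusters on a modified Illumina MiSeq flow-cell were annealed to 100 nM quencher-labelled ATP aptamer, imaged in selection buffer, then imaged after 15 min with 500 uM ATP at 22 °C. Five buffer/ATP cycles ran, with NaOH stripping and re-annealing between them. The fluorescence ratio is summed target-cycle over summed buffer-cycle Cy3 intensity per cluster, averaged per switch-domain sequence. Clusters outside 100-1000 RFU were excluded.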
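Note: ATP exposure 15 min at 22 °C before imaging.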

Sequence | switch fluorescence ratio
CCTAGGTAGA | 1.05
CCTAGTGTGT | 1.07
CCTAGTTAGG | 0.987
CCTATAATGA | 1.01
CCTATACTGA | 1.02
CCTATGCTCG | 1.03
CCTATGTGCG | 0.977
CCTATTAGAT | 1.04
CCTCAGATGT | 1.32
CCTCCACTGG | 3.91
CCTCCCTGGC | 1.62
CCTCCTATGT | 2.22
CCTCGGCCAG | 2.56
CCTCGTATGT | 1.07
CCTCTAAGTG | 1.42
CCTCTAATGA | 2.37
CCTCTACCTT | 1.21
CCTCTGGGCT | 1.38
CCTCTTGACC | 1.18
CCTGAAAAGA | 1.56
CCTGAACGGT | 1.02
CCTGAAGGCG | 0.987
CCTGACACGA | 1.21
CCTGACAGTT | 1.03
CCTGATATTT | 1
CCTGATGGTT | 0.996

Sequence | switch fluorescence ratio
CCTGATTGA | 0.962
CCTGCAGGGC | 1.4
CCTGCTAAAG | 1.08
CCTGCTCCAC | 1.91
CCTGCTCTGT | 1.05
CCTGGAGTTC | 1.02
CCTGGATCCC | 1.2
CCTGGCCACT | 1.05
CCTGGGGTAC | 2.21
CCTGGGGTCA | 1.04
CCTGGTACAA | 1.05
CCTGGTTTGT | 0.994
CCTGTACTTG | 1
CCTGTATATT | 0.956
CCTGTATCAG | 0.998
CCTGTATCCA | 1.09
CCTGTATGCG | 1.08
CCTGTCGGTG | 1.06
CCTGTCTGTA | 0.984
CCTGTGAATA | 1.11
CCTGTGAGGC | 1.1
CCTGTGCGTT | 1.65
CCTGTGGTTT | 1.01
CCTGTGTACT | 1.14
CCTGTGTATA | 1.09
CCTGTTATCA | 0.968

Sequence | switch fluorescence ratio
CCTGTTGGCC | 0.991
CCTTAAGAGG | 1.02
CCTTAAGTTA | 1.04
CCTTACATCA | 1.02
CCTTACGCGT | 1.03
CCTTATTCCG | 2.01
CCTTCCGAC | 3.05
CCTTCGATAT | 2.89
CCTTCGATTA | 2.77
CCTTGACGGC | 1.11
CCTTGATAGT | 1
CCTTGATCTA | 0.964
CCTTGCTTCT | 1.11
CCTTGGCGGC | 1.34
CCTTGTCGAG | 1.02
CCTTTAAAGT | 1.01
CCTTTAATCA | 0.994
CCTTTAGCGT | 1.25
CCTTTAGTAT | 1.04
CCTTTATTCT | 1.02
CCTTTGCGTT | 0.997
CGAAAAAATA | 1.03
CGAAAACACG | 1
CGAAACGGAG | 1.03
CGAAACGGGT | 1.01

From the supplement of paper PMC10126150
